The list shows a part of the results.
Tests used:
Test in all cases: glycan array binding signal (z-score within array); higher = stronger binding
Details in all cases: glycan notation: IUPAC condensed, linker removed
[1] = target: Fuc(a1-2)[GalNAc(a1-3)]Gal(b1-4)[Fuc(a1-3)]GlcNAc
Method in brief: (§1)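 The binding signal is a Z-score computed within each array and averaged over linkers. Arrays of the same protein sequence at different concentrations or buffers were also averaged together. Data originate from 3228 arrays in the Consortium for Functional Glycomics database, kept only where the protein sequence was available.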

[2] = target: Fuc(a1-2)[GalNAc(a1-4)]Gal(b1-4)GlcNAc
Method in brief: as §1

[3] = target: Fuc(a1-3)GlcNAc
Method in brief: as §1

[4] = target: Fuc(a1-3)[Gal(b1-4)]Glc6S
Method in brief: as §1

[5] = target: Fuc(a1-3)[Gal(b1-4)]GlcNAc
Method in brief: as §1

[6] = target: Fuc(a1-3)[Gal(b1-4)]GlcNAc(b1-3)Gal(b1-3)[Fuc(a1-4)]GlcNAc
Method in brief: as §1

[7] = target: Fuc(a1-3)[Gal(b1-4)]GlcNAc(b1-4)Gal(b1-4)[Fuc(a1-3)]GlcNAc
Method in brief: as §1

[8] = target: Fuc(a1-3)[Gal(b1-4)]GlcNAc(b1-4)Gal(b1-4)[Fuc(a1-3)]GlcNAc(b1-4)Gal(b1-4)[Fuc(a1-3)]GlcNAc
Method in brief: as §1

[9] = target: Fuc(a1-3)[Gal(b1-4)]GlcNAc6S
Method in brief: as §1

[10] = target: Fuc(a1-3)[Gal3S(b1-4)]Glc
Method in brief: as §1

[11] = target: Fuc(a1-3)[Gal3S(b1-4)]Glc6S
Method in brief: as §1

[12] = target: Fuc(a1-3)[Gal3S(b1-4)]GlcNAc
Method in brief: as §1

[13] = target: Fuc(a1-3)[Gal3S(b1-4)]GlcNAc6S
Method in brief: as §1

[14] = target: Fuc(a1-3)[GalNAc(b1-4)]Gal(b1-4)GlcNAc
Method in brief: as §1

[15] = target: Fuc(a1-4)GlcNAc
Method in brief: as §1

[16] = target: Fuc(b1-3)GlcNAc
Method in brief: as §1

[17] = target: Gal(a1-2)Gal
Method in brief: as §1

[18] = target: Gal(a1-3)Gal
Method in brief: as §1

[19] = target: Gal(a1-3)Gal(b1-3)Glc
Method in brief: as §1

[20] = target: Gal(a1-3)Gal(b1-3)GlcNAc
Method in brief: as §1

[21] = target: Gal(a1-3)Gal(b1-4)GlcNAc
Method in brief: as §1

[22] = target: Gal(a1-3)Gal(b1-4)[Fuc(a1-3)]GalNAc
Method in brief: as §1

[23] = target: Gal(a1-3)GlcNAc
Method in brief: as §1

[24] = target: Gal(a1-3)[Gal(a1-4)]Gal(b1-4)GlcNAc
Method in brief: as §1

[25] = target: Gal(a1-4)Gal(b1-4)Gal
Method in brief: as §1

[26] = target: Gal(a1-4)Gal(b1-4)GalNAc
Method in brief: as §1

[27] = target: Gal(a1-4)GlcNAc
Method in brief: as §1

[28] = target: Gal(a1-6)Glc
Method in brief: as §1

[29] = target: Gal(b1-2)Gal
Method in brief: as §1

[30] = target: Gal(b1-3)Gal
Method in brief: as §1

[31] = target: Gal(b1-3)GalNAc
Method in brief: as §1

[32] = target: Gal(b1-3)GalNAc(b1-3)Gal(a1-4)Gal(b1-4)Glc
Method in brief: as §1

[33] = target: Gal(b1-3)GalNAc(b1-3)Gal(b1-4)Glc
Method in brief: as §1

[34] = target: Gal(b1-3)GalNAc(b1-3)Gal(b1-4)GlcNAc
Method in brief: as §1

[35] = target: Gal(b1-3)GalNAc(b1-4)Gal(b1-4)Glc
Method in brief: as §1

[36] = target: Gal(b1-3)GalNAc(b1-4)[Neu5Ac(a2-3)]Gal(b1-4)Glc
Method in brief: as §1

[37] = target: Gal(b1-3)GlcNAc(b1-3)Gal(b1-3)GlcNAc
Method in brief: as §1

[38] = target: Gal(b1-3)[Fuc(a1-4)]GlcNAc
Method in brief: as §1

[39] = target: Gal(b1-3)[Fuc(a1-4)]GlcNAc(b1-3)Gal(b1-3)[Fuc(a1-4)]GlcNAc
Method in brief: as §1

[40] = target: Gal(b1-3)[Fuc(a1-4)]GlcNAc(b1-3)Gal(b1-4)GlcNAc
Method in brief: as §1

[41] = target: Gal(b1-3)[Fuc(a1-4)]GlcNAc(b1-3)Gal(b1-4)[Fuc(a1-3)]GlcNAc
Method in brief: as §1

[42] = target: Gal(b1-3)[GlcNAc(b1-6)]GalNAc
Method in brief: as §1

[43] = target: Gal(b1-3)[GlcNAc(b1-6)]GlcNAc
Method in brief: as §1

[44] = target: Gal(b1-3)[Neu5Ac(a2-6)]GalNAc
Method in brief: as §1

[45] = target: Gal(b1-3)[Neu5Ac(a2-6)]GlcNAc
Method in brief: as §1

B1: FBG4 (Homo sapiens), Q96EF6 (protein)
chain: MGARLSRRRLPADPSLALDALPPELLVQVLSHVPPRSLVTRCRPVCRAWRDIVDGPTVWLLQLARDRSAEGRALYAVAQRCLPSNEDKEEFPLCALARYCLRAPFGRNLIFNSCGEQGFRGWEVEHGGNGWAIEKNLTPVPGAPSQTCFVTSFEWCSKRQLVDLVMEGVWQELLDSAQIEICVADWWGARENCGCVYQLRVRLLDVYEKEVVKFSASPDPVLQWTERGCRQVSHVFTNFGKGIRYVSFEQYGRDVSSWVGHYGALVTHSSVRVRIRLS
**Q.** Which results are given for B1?
**A.** glycan array binding signal (z-score) [1]: -0.043; glycan array binding signal (z-score) [2]: -0.49; glycan array binding signal (z-score) [3]: -0.513; glycan array binding signal (z-score) [4]: -0.208; glycan array binding signal (z-score) [5]: -0.467; glycan array binding signal (z-score) [6]: -0.331; glycan array binding signal (z-score) [7]: -0.228; glycan array binding signal (z-score) [8]: -0.332; glycan array binding signal (z-score) [9]: -0.271; glycan array binding signal (z-score) [10]: -0.408; glycan array binding signal (z-score) [11]: 0.064; glycan array binding signal (z-score) [12]: -0.301; glycan array binding signal (z-score) [13]: 0.459; glycan array binding signal (z-score) [14]: -0.158; glycan array binding signal (z-score) [15]: -0.394; glycan array binding signal (z-score) [16]: -0.395; glycan array binding signal (z-score) [17]: -0.37; glycan array binding signal (z-score) [18]: -0.408; glycan array binding signal (z-score) [19]: -0.259; glycan array binding signal (z-score) [20]: -0.25; glycan array binding signal (z-score) [21]: -0.221; glycan array binding signal (z-score) [22]: -0.256; glycan array binding signal (z-score) [23]: -0.551; glycan array binding signal (z-score) [24]: -0.397; glycan array binding signal (z-score) [25]: -0.039; glycan array binding signal (z-score) [26]: -0.389; glycan array binding signal (z-score) [27]: -0.495; glycan array binding signal (z-score) [28]: 1.59; glycan array binding signal (z-score) [29]: -0.007; glycan array binding signal (z-score) [30]: -0.536; glycan array binding signal (z-score) [31]: -0.478; glycan array binding signal (z-score) [32]: -0.289; glycan array binding signal (z-score) [33]: -0.097; glycan array binding signal (z-score) [34]: -0.307; glycan array binding signal (z-score) [35]: -0.488; glycan array binding signal (z-score) [36]: -0.335; glycan array binding signal (z-score) [37]: -0.016; glycan array binding signal (z-score) [38]: -0.571; glycan array binding signal (z-score) [39]: -0.379; glycan array binding signal (z-score) [40]: -0.167; glycan array binding signal (z-score) [41]: -0.388; glycan array binding signal (z-score) [42]: -0.487; glycan array binding signal (z-score) [43]: -0.388; glycan array binding signal (z-score) [44]: -0.433; glycan array binding signal (z-score) [45]: -0.329

Source: the supplement of paper PMC8728848
